By IC50 is meant the dose at which the fit gives 50% viability; where the fit passes the top or lowest dose, that dose stands as a limit. For AUC the same curve is integrated over the 256-fold range of doses and scaled to a fraction: 1 means no effect, lower means more sensitive.
Compound: COc1ccc(C2=N[C@@H](c3ccc(Cl)cc3)[C@@H](c3ccc(Cl)cc3)N2C(=O)N2CCNC(=O)C2)c(OC(C)C)c1 [Nutlin-3a]
Assay: Viability of human cancer cell lines after 72 h of drug (GDSC screen)
Procedure: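 Human cancer cell lines in 384-well plates, medium with 10% serum, drug for 72 h over a 256-fold dose range (nine 2-fold or five 4-fold steps up to the top dose). Adherent lines were fixed and stained with the nucleic acid dye Syto60, suspension lines read with resazurin; signal relative to control wells, capped at 0 and 100%. One two-parameter sigmoid per drug and line, fitted in a mixed model over all curves with the slope shared within a line.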

Row | Cell Line | AUC | IC50 [µM]
1 | Hs766T (pancreas, adherent, top dose 8 µM) | 0.955 | > 8
2 | Hs939-T (melanoma, adherent, top dose 8 µM) | 0.84 | 6.28
3 | Hs-578-T (breast, adherent, top dose 8 µM) | 0.987 | > 8
4 | HuCCT1 (biliary tract, adherent, top dose 8 µM) | 0.934 | > 8
5 | HuH-7 (liver, adherent, top dose 8 µM) | 0.983 | > 8
6 | HuO9 (osteosarcoma, adherent, top dose 8 µM) | 0.962 | > 8
7 | HuO-3N1 (osteosarcoma, adherent, top dose 8 µM) | 0.982 | > 8
8 | HuP-T3 (pancreas, adherent, top dose 8 µM) | 0.98 | > 8
9 | HuP-T4 (pancreas, adherent, top dose 8 µM) | 0.984 | > 8
10 | IA-LM (large cell lung carcinoma, adherent, top dose 8 µM) | 0.985 | > 8
11 | IGR-1 (melanoma, adherent, top dose 8 µM) | 0.921 | > 8
12 | IGR-37 (melanoma, adherent, top dose 8 µM) | 0.988 | > 8
13 | IGROV-1 (ovary, adherent, top dose 8 µM) | 0.885 | > 8
14 | IHH-4 (thyroid, semi-adherent, top dose 8 µM) | 0.808 | 3.19
15 | IM-9 (myeloma, suspension, top dose 8 µM) | 0.962 | > 8
16 | IMR-5 (neuroblastoma, adherent, top dose 8 µM) | 0.921 | > 8
17 | IPC-298 (melanoma, adherent, top dose 8 µM) | 0.988 | > 8
18 | IST-MEL1 (melanoma, adherent, top dose 8 µM) | 0.964 | > 8
19 | IST-SL1 (small cell lung carcinoma, semi-adherent, top dose 8 µM) | 0.986 | > 8
20 | IST-SL2 (small cell lung carcinoma, suspension, top dose 8 µM) | 0.989 | > 8
21 | JEKO-1 (B-cell lymphoma, suspension, top dose 8 µM) | 0.942 | > 8

Row | Cell Line | AUC | IC50 [µM]
22 | JHH-1 (liver, adherent, top dose 8 µM) | 0.92 | > 8
23 | JHH-2 (liver, adherent, top dose 8 µM) | 0.986 | > 8
24 | JHH-4 (liver, adherent, top dose 8 µM) | 0.982 | > 8
25 | JHH-7 (liver, adherent, top dose 8 µM) | 0.989 | > 8
26 | JHOS-2 (ovary, adherent, top dose 8 µM) | 0.922 | > 8
27 | JHOS-3 (ovary, adherent, top dose 8 µM) | 0.984 | > 8
28 | JHOS-4 (ovary, adherent, top dose 8 µM) | 0.98 | > 8
29 | JHU-011 (head and neck, adherent, top dose 8 µM) | 0.956 | > 8
30 | JHU-022 (head and neck, adherent, top dose 8 µM) | 0.948 | > 8
31 | JHU-029 (head and neck, adherent, top dose 8 µM) | 0.977 | > 8
32 | JIMT-1 (breast, adherent, top dose 8 µM) | 0.962 | > 8
33 | JJN-3 (haematopoietic neoplasm, suspension, top dose 8 µM) | 0.992 | > 8
34 | JM1 (B-cell lymphoma, suspension, top dose 8 µM) | 0.884 | 6.5
35 | JSC-1 (B-cell lymphoma, suspension, top dose 8 µM) | 0.826 | 4.77
36 | JURL-MK1 (chronic myeloid leukaemia, suspension, top dose 8 µM) | 0.959 | > 8
37 | JVM-2 (lymphoid neoplasm, suspension, top dose 8 µM) | 0.847 | > 8
38 | JVM-3 (lymphoid neoplasm, suspension, top dose 8 µM) | 0.718 | 2.09
39 | JiyoyeP-2003 (Burkitt lymphoma, suspension, top dose 8 µM) | 0.982 | > 8
40 | Jurkat (T-cell leukaemia, suspension, top dose 8 µM) | 0.984 | > 8
41 | K2 (melanoma, adherent, top dose 8 µM) | 0.947 | > 8
